For assay [1], the target named is EGFR L858R/T790M/C797S protein (residues 668-1210) (Homo sapiens (Human), UniProt P00533, C797S/L858R/T790M). The assay can be described thus: Intact mass spectrometry of covalent binding with BI-4020 competition. The settings on record: compound 4.4 uM, EGFR 2.2 uM; for covalent complex formation by intact mass spectrometry: NaBH4 reduction, with and without BI-4020 30 uM. Here is the method:
Freshly dissolved NaBH4 in PBS was added to 5 mM final concentration for 5 min at room temperature to reduce imines to mass-spec stable amines. Reduction reactions were quenched by addition of 100% volume acetonitrile+1% TFA prior to injection on a Waters BioAccord L^C-MS.

Assay [2] addresses EGFR del746-750 T790M C797S in Ba/F3 cells (Homo sapiens (Human), UniProt P00533, C797S/DEL746-750/T790M). Description: Ba/F3 pEGFR assay (AlphaLISA p-EGFR Tyr1068). Type of assay: cell-based. The settings on record: 2 hrs treatment; read-out: pEGFR Ba/F3 del19/T790M/C797S IC50. How it is done:
(§1) Cellular activity was determined using the Ba/F3 system for studying oncogenic mutant kinases (Warmuth 2007). […] Transduced cells were maintained in RPMI 1640 with 10% FBS. EGFR WT transduced cells were grown in media supplemented with EGF. To assay cellular activity of inhibitors, cells were treated with inhibitor from 1000X DMSO stock dilutions and incubated for 2 hrs at 37° C. 5% CO2. Subsequently, p-EGFR (Tyr1068) was quantified using a commercial sandwich immunoassay (PerkinElmer AlphaLISA SureFire assay; ALSU-PEGFR) according to the manufacturer's instructions. […] Curr Opin Oncol 19, 55-60 (2007), which is incorporated herein in its entirety.
For orientation: Alpha assays give light when donor and acceptor beads are brought close together.

In assay [3] the target is EGFR T790M C797S L858R in Ba/F3 cells (Homo sapiens (Human), UniProt P00533, C797S/L858R/T790M). The assay can be described thus: Ba/F3 pEGFR assay (AlphaLISA p-EGFR Tyr1068). Type of assay: cell-based. Particulars: 2 hrs treatment. Here is the method: as §1
For assay [4], the target named is EGFR (d746-750) T790M C797S (Homo sapiens (Human), UniProt P00533, C797S/DEL746-750/T790M). The assay can be described thus: EGFR biochemical assay (AssayQuant chelation-enhanced fluorescence). The settings on record: read-out: AssayQuant EGFR del19/TM/CS IC50; 30 min preincubation, reaction time 150 min.
In the next assay the target is EGFR L858R/T790M/C797S (Homo sapiens (Human), UniProt P00533, C797S/L858R/T790M). The description is as above. Particulars: read-out: AssayQuant EGFR LR/TM/CS IC50; 30 min preincubation, reaction time 150 min.

The structures appear in SMILES notation.

For `COc1cc(N2CCC(N3CCN(C)CC3)CC2)ccc1Nc1ncc(-c2ccc(O)c(C=O)c2F)c(Nc2ccccc2)n1` [Compound 11], in assay [1], the “covalent complex formation by intact mass spectrometry” value is “covalent complex formation”. Moreover, the IC50 is greater than 7520 nM in assay [2], 5420 nM in assay [3], 267 nM in assay [4] and 22.6 nM on EGFR L858R/T790M/C797S.

`COc1cc(N2CCC(N3CCN(C)CC3)CC2)ccc1Nc1ncc(C#Cc2ccc(O)c(C=O)c2)c(Nc2ccccc2)n1` [Compound 17]: in assay [1], the “covalent complex formation by intact mass spectrometry” value is given as “covalent complex formation”. For the same compound, the IC50 (in assay [4]; on EGFR L858R/T790M/C797S) was greater than 1000 nM in each case.

Turning to `COc1cc(N2CCC(N3CCN(C)CC3)CC2)ccc1Nc1ncc(Cl)c(Oc2ccccc2-c2cccc(O)c2C=O)n1` [Compound 19], the “covalent complex formation by intact mass spectrometry” value in assay [1] is reported as “covalent complex formation”. Further, the IC50 (in assay [4]; on EGFR L858R/T790M/C797S) was greater than 1000 nM in each case.

With `COc1cc(N2CCC(N3CCN(C)CC3)CC2)ccc1Nc1ncc(Cl)c(Nc2cccc(-c3cccc(O)c3C=O)c2)n1` [Compound 26], the “covalent complex formation by intact mass spectrometry” value in assay [1] is “covalent complex formed between the protein and Compound 26”. Also, in assay [1] (molar excess of BI-4020 30 uM), the “covalent complex formation by intact mass spectrometry in presence of competitor” value was “prevents binding of Compound 26 to EGFR and subsequent covalent complex formation”. Also, the IC50 (in assay [4]; on EGFR L858R/T790M/C797S) was greater than 1000 nM throughout.

As for `COc1cc(N(C)CCN(C)C)ccc1Nc1ncc(Cl)c(-c2cn(Cc3cccc(O)c3C=O)c3ccccc23)n1` [Compound 32], in assay [1], the “covalent complex formation by intact mass spectrometry” value is reported as “covalent complex formation”. The IC50 in assay [4] is greater than 1000 nM; on EGFR L858R/T790M/C797S, 136 nM.

As to `CC(C)c1ccc(N2CC(CS(C)(=O)=O)C2)c2cnc(Nc3ccnc(C#Cc4cccc(O)c4C=O)n3)cc12` [Compound 41], the “covalent complex formation by intact mass spectrometry” value in assay [1] is “covalent complex formation”. Besides, the IC50 in assay [4] was found to be 7.85 nM; on EGFR L858R/T790M/C797S it was 1.51 nM.

Consider `CC(C)c1ccc(N2CC(CS(C)(=O)=O)C2)c2cnc(Nc3ccnc(COc4cccc(O)c4C=O)n3)cc12` [Compound 42], for which the “covalent complex formation by intact mass spectrometry” value in assay [1] is on record as “covalent complex formation”. Also, the IC50 in assay [2] stood at 2740 nM; in assay [3] it was 1030 nM; in assay [4], 60.1 nM; on EGFR L858R/T790M/C797S, 2.1 nM.

On to `CC(C)c1ccc(N2CC(CS(C)(=O)=O)C2)c2cnc(Nc3ccnc(-n4cc(-c5cccc(O)c5C=O)cn4)n3)cc12` [Compound 44], for which the “covalent complex formation by intact mass spectrometry” value in assay [1] is given as “covalent complex formation”. The IC50 is 745 nM in assay [2], 600 nM in assay [3], 33.7 nM in assay [4] and 8.61 nM at EGFR L858R/T790M/C797S.

Regarding `CN1CCN(Cc2ccc3[nH]/c(=N\C(=O)c4cc(C#N)cc(Oc5cccc(O)c5C=O)c4)n(CC(C)(C)O)c3c2)CC1` [Compound 51], in assay [1], the “covalent complex formation by intact mass spectrometry” value is listed as “covalent complex formation”. Further, the IC50 in assay [2] came out at 38.9 nM; in assay [3], 36.5 nM; in assay [4], 0.795 nM; at EGFR L858R/T790M/C797S it was 0.147 nM.

Turning to `CN1CCN(Cc2ccc3[nH]/c(=N\C(=O)c4cccc(Oc5cccc(O)c5C=O)c4)n(CC(C)(C)O)c3c2)CC1` [Compound 52], the “covalent complex formation by intact mass spectrometry” value in assay [1] is “covalent complex formation”. Besides, the IC50 in assay [2] was found to be 57.7 nM; in assay [3], 92.5 nM; in assay [4], 4.22 nM; on EGFR L858R/T790M/C797S it was 0.187 nM.

On to `CN1CCN(Cc2ccc3[nH]/c(=N\C(=O)c4ccnc(C#Cc5c(F)ccc(O)c5C=O)c4)n(CC(C)(C)O)c3c2)CC1` [Compound 57], for which the “covalent complex formation by intact mass spectrometry” value in assay [1] is reported as “covalent complex formation”. The IC50 amounted to 110 nM in assay [2], 308 nM in assay [3], 2.44 nM in assay [4] and 0.315 nM at EGFR L858R/T790M/C797S.

Consider `CN1CCN(Cc2ccc3[nH]/c(=N\C(=O)c4cc(C=O)cc(Oc5cccc(O)c5C=O)c4)n(CC(C)(C)O)c3c2)CC1` [Compound 58], for which the IC50 in assay [2] was 460 nM; in assay [3] it was 405 nM; in assay [4] it was 2.44 nM; at EGFR L858R/T790M/C797S, 0.422 nM.

`Cc1ccc(C(=O)/N=c2\[nH]c3ccc(CN4CCN(C)CC4)cc3n2CC(C)(C)O)cc1Oc1cccc(O)c1C=O` [Compound 59]: the IC50 in assay [2] came to 293 nM; in assay [3], 365 nM; in assay [4], 6 nM; on EGFR L858R/T790M/C797S, 0.424 nM.

As for `CN1CCN(Cc2ccc3[nH]/c(=N\C(=O)c4cc(F)nc(Oc5cccc(O)c5C=O)c4)n(CC(C)(C)O)c3c2)CC1` [Compound 60], the IC50 in assay [2] came to 117 nM; in assay [3] it was 124 nM; in assay [4], 2.65 nM; on EGFR L858R/T790M/C797S, 0.438 nM.

In the case of `Cc1cc(Oc2cccc(O)c2C=O)cc(C(=O)/N=c2\[nH]c3ccc(CN4CCN(C)CC4)cc3n2CC(C)(C)O)c1` [Compound 61], the IC50 in assay [2] is 315 nM; in assay [3], 97.2 nM; in assay [4] it was 15.1 nM; at EGFR L858R/T790M/C797S, 0.515 nM.

With `CC(C)(O)Cn1/c(=N/C(=O)c2ccnc(Oc3cccc(O)c3C=O)c2)[nH]c2ccc(CN3CC(C(C)(C)O)C3)cc21` [Compound 63, (E)-2-(2-formyl-3-hydroxyphenoxy)-N-(1-(2-hydroxy-2-methylpropyl)-6-((3-(2-hydroxypropan-2-yl)azetidin-1-yl)methyl)-1,3-dihydro-2H-benzo[d]imidazol-2-ylidene)isonicotinamide], the IC50 in assay [2] turned out to be 276 nM; in assay [3], 241 nM; in assay [4], 4.56 nM; at EGFR L858R/T790M/C797S it was 0.526 nM.

For `CC(C)Cn1/c(=N/C(=O)c2ccnc(Oc3cccc(O)c3C=O)c2)[nH]c2ccc(CN3CCN(C)CC3)cc21` [Compound 65], the IC50 was determined as 65.9 nM in assay [2], 38.6 nM in assay [3], 1.59 nM in assay [4] and 0.616 nM on EGFR L858R/T790M/C797S.

For the compound `CN1CCN(Cc2ccc3[nH]/c(=N\C(=O)c4ccnc(Oc5cc(F)cc(O)c5C=O)c4)n(CC(C)(C)O)c3c2)CC1` [Compound 66], the IC50 in assay [2] came out at 373 nM; in assay [3] it was 202 nM; in assay [4] it was 5.96 nM; at EGFR L858R/T790M/C797S, 0.629 nM.

For `CN1CCN(Cc2ccc3[nH]/c(=N\C(=O)c4ccnc(Oc5c(F)ccc(O)c5C=O)c4)n(CC(C)(C)O)c3c2)CC1` [Compound 68], the IC50 turned out to be 457 nM in assay [2], 518 nM in assay [3], 2.98 nM in assay [4] and 0.899 nM at EGFR L858R/T790M/C797S.

Turning to `CN1CCN(Cc2ccc3[nH]/c(=N\C(=O)c4ccnc(C#Cc5cccc(NS(C)(=O)=O)c5C=O)c4)n(CC(C)(C)O)c3c2)CC1` [Compound 69], the IC50 is greater than 10000 nM in assay [2], greater than 10000 nM in assay [3], 2.68 nM in assay [4] and 0.911 nM on EGFR L858R/T790M/C797S.

Take `Cc1cc(C(=O)/N=c2\[nH]c3ccc(CN4CCN(C)CC4)cc3n2CC(C)(C)O)cc(Oc2cccc(O)c2C=O)n1` [Compound 79]: in assay [1], the “covalent complex formation by intact mass spectrometry” value was “covalent complex formation”.

Consider `CC(C)(O)Cn1/c(=N/C(=O)c2ccnc(-c3cccc(-c4cccc(O)c4C=O)c3)c2)[nH]c2ccccc21` [Compound 130], for which the IC50 in assay [2] is greater than 10000 nM; in assay [3], 5500 nM; in assay [4] it was 226 nM; on EGFR L858R/T790M/C797S, 26.3 nM.

Turning to `CC(C)(O)Cn1/c(=N/C(=O)c2ccnc(N3CCN(c4cccc(O)c4C=O)CC3)c2)[nH]c2ccccc21` [Compound 131], the IC50 in assay [2] was 1950 nM; in assay [3], 5600 nM; in assay [4], 275 nM; on EGFR L858R/T790M/C797S, 27.2 nM.

Regarding `CC(C)(O)Cn1/c(=N/C(=O)c2ccnc(-c3ccc(-c4cccc(O)c4C=O)cc3)c2)[nH]c2ccccc21` [Compound 132], the IC50 in assay [2] was 2470 nM; in assay [3] it was 8700 nM; in assay [4], greater than 1000 nM; on EGFR L858R/T790M/C797S, 38 nM.

For `CC(C)(O)Cn1/c(=N/C(=O)c2ccnc(Nc3cccc(C=O)c3O)c2)[nH]c2ccccc21` [Compound 134], the IC50 was greater than 10000 nM in assay [2], 1390 nM in assay [3], 925 nM in assay [4] and 203 nM on EGFR L858R/T790M/C797S.

On to `CC(C)(O)Cn1/c(=N/C(=O)c2ccnc(CCc3cccc(O)c3C=O)c2)[nH]c2ccccc21` [Compound 135], for which the IC50 in assay [2] was greater than 10000 nM; in assay [3] it was greater than 10000 nM; in assay [4], 420 nM; at EGFR L858R/T790M/C797S, 261 nM.

For the origin of these results see patent publication US20240409609A1, “REVERSIBLE LYSINE COVALENT MODIFIERS OF EGFR AND USES THEREOF” (Terremoto Biosciences, Inc., priority 2021, published 2024).
